# In all, about 39,000 compounds went through this assay and about 220 (0.56%) showed activity. This is one part of the list.
# Test system: Escherichia coli K-12 BW25113
# Assay: relative growth (OD600 normalised to plate interquartile mean) (fraction); higher = less growth inhibition, active = 0.2 or less
# Conditions: 50 µM; LB; incubation time: overnight (16-24 h)
# 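Also: static incubation at 37 °C against the wild-type strain, values averaged over two biological replicates.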
row,Structure (SMILES),relative growth
1,COc1ccc(S(=O)(=O)Nc2ccc3c(c2)CC(=O)N([C@H](C)CO)C[C@H](C)[C@H](CN(C)C(=O)Nc2c(C)noc2C)O3)cc1,inactive: 1.02
2,COc1oc(C(=O)NC2CCCCC2)c(-c2ccc(Cl)cc2)c1S(=O)(=O)c1ccc2c(c1)OCCO2,inactive: 0.937
3,CO[C@@H]1CN(C)C(=O)c2ccc(NC(=O)NC(C)C)cc2OC[C@H](C)N(Cc2ccc(-c3ccccn3)cc2)C[C@@H]1C,inactive: 0.971
4,C[C@H]1CN([C@@H](C)CO)S(=O)(=O)c2ccc(-c3ccncc3)cc2O[C@H]1CN(C)Cc1ccc(Oc2ccccc2)cc1,inactive: 0.972
5,Cc1noc(C)c1S(=O)(=O)Nc1ccc2c(c1)C(=O)N([C@H](C)CO)C[C@H](C)[C@@H](CN(C)S(=O)(=O)c1cn(C)cn1)OCCCC[C@H](C)O2,inactive: 1
6,COc1ccc(NC(=O)Nc2ccc3c(c2)C(=O)N([C@H](C)CO)C[C@H](C)[C@H](CN(C)C(=O)Nc2ccc4c(c2)OCO4)OCCCC[C@@H](C)O3)cc1,inactive: 1.02
7,Cc1noc(C)c1S(=O)(=O)Nc1ccc2c(c1)C(=O)N([C@@H](C)CO)C[C@H](C)[C@H](CN(C)Cc1ccc3c(c1)OCO3)O2,inactive: 0.963
8,COc1ccccc1NC(=O)N(C)C[C@H]1Oc2ncc(C#CC(C)C)cc2C(=O)N([C@@H](C)CO)C[C@@H]1C,inactive: 1.01
9,COc1ccc(S(=O)(=O)N(C)C[C@H]2OCCCC[C@H](C)Oc3ccc(NC(=O)Nc4ccc5c(c4)OCO5)cc3C(=O)N([C@@H](C)CO)C[C@@H]2C)cc1,inactive: 1.02
10,[N-]=[N+]=Nc1ccccc1[C@@H]1OC(c2ccc(OCCCO)cc2)=N[C@]1(Cc1ccccc1)C(=O)N1CCCCC1,inactive: 0.993
11,COc1ccc(NC(=O)Nc2ccc3c(c2)CC(=O)N([C@@H](C)CO)C[C@H](C)[C@@H](CN(C)S(=O)(=O)c2cn(C)cn2)O3)cc1,inactive: 0.989
12,CNC1(C)C2CCC(C2)C1(C)C.Cl (centres undefined),inactive: 0.976
13,C[C@@H]1CN([C@H](C)CO)C(=O)c2cc(NC(=O)Cn3cnnn3)ccc2O[C@H]1CN(C)CC1CCCCC1,inactive: 0.975
14,C[C@@H]1CCCCO[C@@H](CN(C)Cc2ccc(C(=O)O)cc2)[C@@H](C)CN([C@H](C)CO)C(=O)c2cc(NC(=O)Nc3cccc4ccccc34)ccc2O1,inactive: 0.991
15,Nc1nc2c(s1)COCC2,inactive: 0.986
16,COc1ccc(S(=O)(=O)N(C)C[C@H]2OCCCC[C@H](C)Oc3ccc(NC(=O)Nc4ccc5c(c4)OCO5)cc3C(=O)N([C@H](C)CO)C[C@H]2C)cc1,inactive: 1.01
17,CS(=O)(=O)N1[C@@H]2c3ccc(-c4ccc(F)cc4)c(=O)n3C[C@@H]2[C@@H](CO)[C@@H]1C(=O)O,inactive: 0.999
18,C[C@@H]1CN([C@H](C)CO)C(=O)c2cccc(NC(=O)Nc3ccc(C(F)(F)F)cc3)c2O[C@@H]1CN(C)Cc1ccc(-c2ccccc2)cc1,inactive: 0.926
19,C[C@H](CO)N1C[C@H](C)[C@H](CN(C)CC2CC2)Oc2cc(C#Cc3cccc(F)c3)ccc2S1(=O)=O,inactive: 1
20,C[C@@H]1CCCCO[C@@H](CN(C)S(C)(=O)=O)[C@H](C)CN([C@H](C)CO)C(=O)c2cc(NC(=O)Nc3cccc4ccccc34)ccc2O1,inactive: 0.98

row,Structure (SMILES),relative growth
1,C[C@H](CO)N1C[C@H](C)[C@H](CN(C)Cc2cccc(C(F)(F)F)c2)Oc2ncc(-c3ccc(F)cc3)cc2C1=O,inactive: 0.989
2,CO[C@H]1CC[C@@H]2[C@H]1OCCN2C(=O)N(C)C,inactive: 1.03
3,Cc1ccc(S(=O)(=O)Nc2cccc3c2O[C@@H](CN(C)C(=O)Nc2ccc(C(F)(F)F)cc2)[C@@H](C)CN([C@@H](C)CO)C3=O)cc1,inactive: 0.98
4,COc1ccc(S(=O)(=O)N(C)C[C@H]2Oc3ccc(NS(C)(=O)=O)cc3C(=O)N([C@@H](C)CO)C[C@H]2C)cc1,inactive: 1.04
5,COc1cccc(NC(=O)N[C@H]2CC[C@@H](CC(=O)N3CCN(C)CC3)O[C@H]2CO)c1,inactive: 1.02
6,C[C@@H]1CCCCO[C@H](CN(C)C(=O)CCCN(C)C)[C@@H](C)CN([C@@H](C)CO)C(=O)c2cc(NC(=O)Nc3ccc(C(F)(F)F)cc3)ccc2O1,inactive: 0.965
7,CO[C@H]1CN(C)C(=O)c2cc(NS(C)(=O)=O)ccc2OC[C@@H](C)N(C(=O)c2ccc3c(c2)OCO3)C[C@@H]1C,inactive: 0.998
8,CC(/C=C/C(=O)NO)=C\c1ccccc1OCc1cn(CC[C@@H]2OC(=O)[C@H](Cc3ccccc3)N3CC4=C[C@@H](C5CC5)n5c(=O)n(C)c(=O)n5[C@H]4[C@H]23)nn1,inactive: 1.04
9,COCCC(=O)N1CC[C@]2(CCOC2)C1,inactive: 1.03
10,CC(=O)OC1CC(OC(C)=O)C2(C)C(CC(=O)C3(C)C2CCC2(C)C(c4ccoc4)OC(=O)C4OC423)C1(C)C (centres undefined),inactive: 0.958
11,CCC[C@@H](O)C#Cc1cnc2c(c1)C(=O)N([C@H](C)CO)C[C@H](C)[C@H](CN(C)C(=O)Nc1ccc(OC)cc1)O2,inactive: 0.984
12,COc1ccc(C#Cc2ccc3c(c2)O[C@@H](CN(C)S(=O)(=O)c2ccccc2F)[C@H](C)CN([C@@H](C)CO)S3(=O)=O)cc1,inactive: 1.03
13,COc1ccc(NC(=O)N(C)C[C@H]2Oc3ncc(C#C[C@@H](C)O)cc3C(=O)N([C@H](C)CO)C[C@H]2C)cc1,inactive: 0.997
14,COc1ccccc1CNC(=O)C[C@@H]1C[C@H]2c3cc(NS(=O)(=O)c4ccc(F)cc4)ccc3O[C@H]2[C@@H](CO)O1,inactive: 1
15,Cc1ccsc1[C@@H](O)CN,inactive: 1.03
16,C[C@@H]1CN([C@H](C)CO)S(=O)(=O)c2ccc(C#CC3CCCC3)cc2O[C@H]1CN(C)C(=O)Cc1ccncc1,inactive: 1
17,C[C@@H]1O[C@@H](O[C@H]2[C@H](O[C@H]3[C@H](O)[C@@H](O[C@@H]4O[C@H](CO)[C@@H](O)[C@H](O)[C@H]4O)[C@H](O[C@H]4CC[C@]5(C)[C@H]6CC[C@]78OC[C@@]9(CCC(C)(C)C[C@@H]97)[C@H](O)C[C@@]8(C)[C@]6(C)CC[C@H]5C4(C)C)O[C@@H]3C(=O)O)O[C@H](CO)[C@H](O)[C@@H]2O)[C@H](O)[C@H](O)[C@H]1O,inactive: 0.998
18,CNS(=O)(=O)c1ccc2[nH]c(=O)[nH]c2c1,inactive: 1.01
19,C[C@H]1CN([C@@H](C)CO)C(=O)c2cccc(NC(=O)Nc3ccccc3)c2O[C@H]1CN(C)C(=O)Nc1cccc2ccccc12,inactive: 0.961
20,COc1ccc(C#Cc2cnc3c(c2)C(=O)N([C@H](C)CO)C[C@H](C)[C@@H](CN(C)C(=O)CN(C)C)O3)cc1,inactive: 1.01

row,Structure (SMILES),relative growth
1,C[C@H]1CN([C@@H](C)CO)C(=O)c2cccc(NC(=O)Nc3cccc4ccccc34)c2O[C@H]1CN(C)C(=O)Nc1ccc(F)cc1,inactive: 0.986
2,OCc1ccccc1O,inactive: 1.14
3,C[C@@H]1CN([C@H](C)CO)C(=O)Cc2cc(NC(=O)CCC(F)(F)F)ccc2O[C@@H]1CN(C)Cc1ccc(-c2ccccc2)cc1,inactive: 0.994
4,Cn1nccc1CO,inactive: 0.994
5,C[C@H]1CN([C@@H](C)CO)C(=O)c2cc(NS(=O)(=O)c3cccs3)ccc2O[C@H]1CN(C)S(=O)(=O)c1ccccc1,inactive: 0.99
6,C[C@H](CO)N1C[C@H](C)[C@@H](CN(C)S(=O)(=O)c2cn(C)cn2)Oc2ncc(C3=CCCCC3)cc2C1=O,inactive: 0.974
7,Cc1ccc(S[C@]2(C(=O)NCc3ccccc3)CC(=O)N(Cc3ccccc3C(F)(F)F)[C@@H]2c2ccc(CO)cc2)cc1,inactive: 1.03
8,CC(=O)N(C)C[C@@H]1Oc2cc(C#CCN(C)C)ccc2S(=O)(=O)N([C@@H](C)CO)C[C@H]1C,inactive: 0.99
9,C[C@@H]1CN([C@H](C)CO)C(=O)Cc2cc(NC(=O)c3ccncc3)ccc2O[C@@H]1CN(C)S(=O)(=O)c1cn(C)cn1,inactive: 1.01
10,C[C@H](CO)N1C[C@H](C)[C@@H](CN(C)C(=O)c2ccccc2)Oc2cc(C#C[C@@H](C)O)ccc2S1(=O)=O,inactive: 1.01
11,C[C@@H]1CN([C@H](C)CO)C(=O)c2cc(NC(=O)Nc3cccc4ccccc34)ccc2O[C@@H](C)CCCCO[C@@H]1CN(C)Cc1ccccc1,inactive: 0.979
12,C[C@H](CO)N1C[C@H](C)[C@@H](CN(C)C(=O)c2ccc3c(c2)OCO3)Oc2cc(-c3ccncc3)ccc2S1(=O)=O,inactive: 0.998
13,C[C@H]1CCCCO[C@H](CN(C)S(=O)(=O)c2ccc(Cl)cc2)[C@@H](C)CN([C@@H](C)CO)C(=O)c2cc(NC(=O)c3ccncc3)ccc2O1,inactive: 0.979
14,Cc1ccc(C(=O)Nc2cccc(C(F)(F)F)c2)cc1Nc1nc(-c2cccnc2)nc2c1cnn2C,inactive: 0.842
15,C[C@H](CO)N1C[C@H](C)[C@@H](CN(C)S(=O)(=O)c2cn(C)cn2)Oc2ccc(NC(=O)Cn3cnnn3)cc2C1=O,inactive: 1
16,COc1c(N2CCNC(C)C2)c(F)cc2c(=O)c(C(=O)O)cn(C3CC3)c12 (centres undefined),active: 0.0431
17,CN(C)C(=O)CN1CCN(C)C(=O)[C@]12CCN(c1ncc(F)cn1)C2,inactive: 1
18,C[C@@H]1CCCCO[C@H](CN(C)S(C)(=O)=O)[C@@H](C)CN([C@H](C)CO)C(=O)c2cc(NS(C)(=O)=O)ccc2O1,inactive: 1
19,CC(CCC(=O)O)C1CCC2C3CCC4CC(O)CCC4(C)C3CCC12C (centres undefined),inactive: 0.822
